Experimental data taken from PMC12136788.
Some of the results follow.

T1: UNK ZnF1-6 (called full-length) (human, UniProt Q9C0B0 30-357)
T1 sequence: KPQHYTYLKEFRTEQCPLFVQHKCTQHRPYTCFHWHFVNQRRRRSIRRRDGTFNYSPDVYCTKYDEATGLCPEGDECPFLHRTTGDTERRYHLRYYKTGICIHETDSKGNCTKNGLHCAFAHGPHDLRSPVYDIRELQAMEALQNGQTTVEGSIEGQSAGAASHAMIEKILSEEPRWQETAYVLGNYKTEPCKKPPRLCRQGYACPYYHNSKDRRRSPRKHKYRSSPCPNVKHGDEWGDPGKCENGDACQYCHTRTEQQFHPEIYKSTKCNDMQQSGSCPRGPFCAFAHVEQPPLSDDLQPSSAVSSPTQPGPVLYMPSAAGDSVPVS

B1: chr1:2308404:2308505:+|3pUTR|ENSG00000157933|unk|FALSE|unique (ssRNA)
RNA: GGGAGUUCUACAGUCCGACGAUCUUCUUUGCUUUUGUUUUCUUUGCGGUUGUUCUGUGUGCAUGGAUUCCACACCUCUGCCGUAGGUAGAUCCGUCAGCGGGCAUUAUUACCGUGUCUUGUAAAGGGUCGGUUUUGUUAUGCACAACAGAGGAUUGAGCAUCA
B2: chr10:25598329:25598431:+|CDS|ENSG00000151025|unk|FALSE|unique (ssRNA)
RNA: GGGAGUUCUACAGUCCGACGAUCAUCGAUGUUACAGAAGUCUCUCAGUGUCAUAGCAAGCGCCAAGGAGAAGACUCUUGGAUUAGCUGGGAAAACCCAAACAGCAGGUGUGGAAGAACGCACUAAAUCCCAGAAACCUUUGCCCAACAGAGGAUUGAGCAUCA
B3: chr9:37441208:37441377:-|CDS|ENSG00000168795|unk|total|mutant (ssRNA)
RNA: GGGAGUUCUACAGUCCGACGAUCAGGGCCGGUGAUAUCCAUAUUUUGGAAGUCACAAAUAACCCCGAGCAUAAGUCCACUUUCCGUAUUUCGAAUUUUCUUAACAAGAGCAGAGGAAAUAACUUUACUGCAAAUCAGAACAAUCAACAGAGGAUUGAGCAUCA
B4: chr19:13097725:13097826:+|3pUTR|ENSG00000008441|msi1|FALSE|unique (ssRNA)
RNA: GGGAGUUCUACAGUCCGACGAUCUGAGCCAGACGCCAACUUGACCCUCACCAGCAUUAUCAGGAGCGCGCUCAGCAAGUUGGUAGUUUCCUCCCCCCUUUCCCGGCGCCCCUCCCGCCCCCAUUCAACAUCUCUCAUCCUAUCCAACAGAGGAUUGAGCAUCA
B5: chr1:20742972:20743075:-|3pUTR|ENSG00000127483|unk|FALSE|unique (ssRNA)
RNA: GGGAGUUCUACAGUCCGACGAUCUAACCCUUUCUUAUUUGUAUUUGUUUUAGUAUUGUGAAGUUGUGUUAAAUAGUACUAGCUAGAAAUACAAAUUUCUGGUUAUCAUUUCUCUUCCCUGUGGCACUUGACAUUUUAAUUGUCCAACAGAGGAUUGAGCAUCA
B6: chr22:49888080:49888186:+|3pUTR|ENSG00000100426|unk|total|mutant (ssRNA)
RNA: GGGAGUUCUACAGUCCGACGAUCUGGCUUAUUAACAGGGAAGAAGCUUGUUAUAUUCCAGUUGUAAGAACCGCCUCCGUGUUCCGAUUUUUUUAUGACCGGGAAGAUGCGGCCAUCACUGGGAUAUUUUCAAAUCCCAAGGACCAACAGAGGAUUGAGCAUCA
B7: chr7:139284418:139284519:+|CDS|ENSG00000157741|unk|total|mutant (ssRNA)
RNA: GGGAGUUCUACAGUCCGACGAUCGCAAUGAAUGUACCUGCCAGCAGAGGCCGCAACCUUAACUCAAGCGGAGCUAACCGGACCCGUCUGUCUGGGGGAACAGGAAGUGGAACACAGGGUGCUACCAAACCAUUGUCUACUCCACAACAGAGGAUUGAGCAUCA
B8: chr14:73275881:73276001:-|3pUTR|ENSG00000133961|unk|total|mutant (ssRNA)
RNA: GGGAGUUCUACAGUCCGACGAUCAAAUAUUAUAUAUAUCAAAAGCCAAAAUCUUUAUUUUUAUGCAUUCCGAAUAUUUUAAACCGUUCUCAGAUAUUAAGAAGUUGUAUGAGUUGUAAGUAAUCUUGCCAAAGGUAAAGGGGCCAACAGAGGAUUGAGCAUCA
B9: chr21:25606471:25606579:-|CDS|ENSG00000154719|unk|total|mutant (ssRNA)
RNA: GGGAGUUCUACAGUCCGACGAUCUGAUCUCUUUAAUAAAGAGAAAGCCAGGCAGUUAUCAUUAACUCCCCGAACUGAGAAGACCGAAGUUAAGCAUGUUGGGAAAACUGACCCCGGUACUGUCUUCGUGAUGAAUAAAAACAUCAACAGAGGAUUGAGCAUCA
B10: chr3:179570125:179570235:+|CDS|ENSG00000136518|unk|FALSE|unique (ssRNA)
RNA: GGGAGUUCUACAGUCCGACGAUCAAGCACAUUAAUGGAAAUAGAUGGCGAUAAAGGCAAACAAGGCGGUCCCACCUACUACAUAGAUACUAAUGCUCUGCGUGUUCCGAGGGAGAAUAUGGAGGCCAUUUCACCUCUAAAAAACAACAGAGGAUUGAGCAUCA
B11: chr17:5384886:5384987:+|3pUTR|ENSG00000029725|unk|FALSE|unique (ssRNA)
RNA: GGGAGUUCUACAGUCCGACGAUCGGUUUAAGACUAGUCCCUUGGAUAAGCCCCAAGCGAAUUUGUCUUCAGAUUAUUAAAAUUAGUGCUGUAAAUCAGGGUGGGCAAUUCACAGCCUUUCUGAACUGACUGAACUAGAGCUUGCAACAGAGGAUUGAGCAUCA
B12: chr12:39618871:39619093:-|CDS|ENSG00000173208|unk|FALSE|unique (ssRNA)
RNA: GGGAGUUCUACAGUCCGACGAUCUAUUAUGAUGUUCUCCCAAUCUGUGGCUCACUUGUAUUCCAAUCUGACCAAACCUAUUUUAGAUGUAAUGCUGACCUCCUAUACACUCAUUCAAACUGCUACAUCCAGAGGAGCAAGCCCCAACAGAGGAUUGAGCAUCA
B13: chr11:119418913:119419014:-|3pUTR|ENSG00000154096|msi1|total|mutant (ssRNA)
RNA: GGGAGUUCUACAGUCCGACGAUCAUCGGGACCAGAAACCUGGGAGAGACUUGGAUGAGGAGUGGUUGGGCUGUGCCUGGGCCCCGCACGGACAUGGUCUGUCCUGACAGCACUCCUCGGCAGGCAUGGCUGGUGCCUGAAGACCAACAGAGGAUUGAGCAUCA
B14: ENSG00000107863:be:win_1701|CDS|ENSG00000107863|bound_else_gene|NA|bound_elsewhere_windowed (ssRNA)
RNA: GGGAGUUCUACAGUCCGACGAUCUGAUAACAGGCGAAUGAGUGGUAGAGGAGUGGGAUCUGUGUCGCAGUUUAAAAAAAUUCCACCAGAUCUAAAAACAUUGCAGUCAAACAGAAAUUUUCAGACUACUUGUGGAAUGUCACUCAACAGAGGAUUGAGCAUCA

target: T1, UNK ZnF1-6 (called full-length); experiment: nsRBNS (natural sequence RNA bind-n-seq); RBNS binding buffer (assumed for nsRBNS): 25 mM Tris pH 7.5, 150 mM KCl, 3 mM MgCl2, 0.01% Triton X-100, 500 ug/ml BSA, 20 U/ml SUPERase-In, 4 C; UNK is unkempt and MSI1 is Musashi-1; names of the RNAs are library labels; protein concentration not given here; high values mean tight binding

Row | Binder | binding signal
1 | B1 | 0.457 enrichment R
2 | B2 | 0.641 enrichment R
3 | B3 | 0.258 enrichment R
4 | B4 | 0.939 enrichment R
5 | B5 | 1.33 enrichment R
6 | B6 | 0.562 enrichment R
7 | B7 | 0.688 enrichment R
8 | B8 | 1.13 enrichment R
9 | B9 | 0.332 enrichment R
10 | B10 | 0.985 enrichment R
11 | B11 | 0.652 enrichment R
12 | B12 | 0.778 enrichment R
13 | B13 | 0.931 enrichment R
14 | B14 | 0.544 enrichment R
